Variants at the floor of the assay are shown more often than the library holds them.
B1: tRNA (parent)
chain: CUCUCGGUAGCCAAGUUGGUUUAAGGCGCAAGACUUUAAUUUAUCACUACGAAAUCUUGAGAUCGGGCGUUCGACUCGCCCCCGGGAGAUUUUUUCCUCGAGCAA

Variants of: B1
Experiment: nonsense suppression (GFP-seq) (ratio to wild type); higher = more function; SUP4oc tRNA, yeast GFP reporter sort-seq
Procedure, shortened: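 Yeast carrying genome-integrated SUP4oc tRNA variants from a library with ~3% random mutations were grown in raffinose/galactose medium with 80 mg/L adenine. Each strain also carried a galactose-driven GFP ochre reporter and RFP. Cells were sorted into GFP/RFP bins, and each bin was Illumina-sequenced (phred ≥30). Nonsense suppression (GFPSEQ) is the bin median GFP/RFP, weighted by each variant's estimated cell share per bin, relative to wild-type SUP4oc; variants needed ≥100 reads and ≥30 cells.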

Variant | nonsense suppression
G6A C64G | ≤ 0.026
G6A C68U G73C | ≤ 0.026
G6A C79U G88C | ≤ 0.026
G6A C81U | 0.0651
G6A C83G G86U | ≤ 0.026
G6A G7C | ≤ 0.026
G6A G7U | ≤ 0.026
G6A G7U C27G G88U | ≤ 0.026
G6A G7U U21A A31C A89G | ≤ 0.026
G6A G10A G19C A54U G73C G88U | ≤ 0.026
G6A G10U | ≤ 0.026
G6A G15C | ≤ 0.026
G6A G15C A89G | ≤ 0.026
G6A G15U C29G | ≤ 0.026
G6A G15U U22C G26U A31U U58A | ≤ 0.026
G6A G18U G28A C34U A89G | ≤ 0.026
G6A G18U G28A C34U A89U | ≤ 0.026
G6A G19A C27A | ≤ 0.026
G6A G19C C34U A62C | ≤ 0.026
G6A G19C G84U | ≤ 0.026
G6A G25C A33G | ≤ 0.026
G6A G25C C29G G78C | ≤ 0.026
G6A G26A G61C A87G | ≤ 0.026
G6A G28C G32A A60G | ≤ 0.026

Variant | nonsense suppression
G6A G32C A33G U35A C81G | ≤ 0.026
G6A G61U C80A | ≤ 0.026
G6A G61U G86U | ≤ 0.026
G6A G65C G78A | ≤ 0.026
G6A G66A G67C | ≤ 0.026
G6A G66C C75G | ≤ 0.026
G6A G66U C75U | ≤ 0.026
G6A G67A | ≤ 0.026
G6A G67A G73U | ≤ 0.026
G6A G85C A89C | ≤ 0.026
G6A U8A | ≤ 0.026
G6A U8C C29U A62C | ≤ 0.026
G6A U8C G85A | ≤ 0.026
G6A U16G G32U A62U | ≤ 0.026
G6A U16G G67U | ≤ 0.026
G6A U17C A60U | ≤ 0.026
G6A U20A A23C G65U | ≤ 0.026
G6A U20G C34U A54U | ≤ 0.026
G6A U22G G26A | ≤ 0.026
G6A U55G | ≤ 0.026
G6A U57C | ≤ 0.026
G6A U57C U58C | ≤ 0.026
G6A U58A G66C G73A | ≤ 0.026
G6A U58G G78C G84C | ≤ 0.026

Variant | nonsense suppression
G6A U63G C81U | ≤ 0.026
G6A U71G | ≤ 0.026
G6A U76A C80A C83G | ≤ 0.026
G6A U76C | ≤ 0.026
G6C A9C C11A A14G U22G G32U G84A | ≤ 0.026
G6C A9C C11U C34U | ≤ 0.026
G6C A9G G25C C27A A30G C34G | ≤ 0.026
G6C A9G U16A | ≤ 0.026
G6C A13C U17C G73C C83U | ≤ 0.026
G6C A13G C77G | ≤ 0.026
G6C A14G A87G | ≤ 0.026
G6C A14G G18A | ≤ 0.026
G6C A14G G61U | ≤ 0.026
G6C A14U G28U | ≤ 0.026
G6C A14U G61U | ≤ 0.026
G6C A23C | ≤ 0.026
G6C A23C A31U U57A C80G | ≤ 0.026
G6C A23C A60U C64U G78A C83G | ≤ 0.026
G6C A23C U55G C64A U70C G85U | ≤ 0.026
G6C A23G A24C A54C U76G G78U | ≤ 0.026
G6C A23U | ≤ 0.026
G6C A24C U57A C81U | ≤ 0.026
G6C A24U | ≤ 0.026
G6C A30U C81G | ≤ 0.026

Variant | nonsense suppression
G6C A31G A33U A60C G69U | ≤ 0.026
G6C A31G G59U | ≤ 0.026
G6C A33G G84U | ≤ 0.026
G6C A33U G67A | ≤ 0.026
G6C A60C G69U C79A | ≤ 0.026
G6C A62C | ≤ 0.026
G6C A87C | ≤ 0.026
G6C A89G | ≤ 0.026
G6C C11A A23G G25U C34U U55A | ≤ 0.026
G6C C11A C75G | ≤ 0.026
G6C C11G U20A | ≤ 0.026
G6C C11U U55G | ≤ 0.026
G6C C12G C72G C75U G85C | ≤ 0.026
G6C C12G G28U C82G | ≤ 0.026
G6C C27A C83A | ≤ 0.026
G6C C29A G59C G69U | ≤ 0.026
G6C C34G | ≤ 0.026
G6C C34G G59C U63C U70C | ≤ 0.026
G6C C56A | ≤ 0.026
G6C C56G | ≤ 0.026
G6C C75U G85A | ≤ 0.026
G6C C77G | ≤ 0.026
G6C C77G G86C | ≤ 0.026
G6C C77U | ≤ 0.026

Variant | nonsense suppression
G6C C80G G88C | ≤ 0.026
G6C G7C U57C G61C | ≤ 0.026
G6C G10U G26A G65C | ≤ 0.026
G6C G15C A33G | ≤ 0.026
G6C G18A C29U A62G | ≤ 0.026
G6C G18C | ≤ 0.026
G6C G18U | ≤ 0.026
G6C G19C | ≤ 0.026
G6C G19U | ≤ 0.026
G6C G25A A33U U55G U57C U70A | ≤ 0.026
G6C G25A G65U G67A G78C | ≤ 0.026
G6C G26C U58A G73C U76C | ≤ 0.026
G6C G26U G59C A60U | ≤ 0.026
G6C G28A U55C | ≤ 0.026
G6C G32A | ≤ 0.026
G6C G32U | ≤ 0.026
G6C G59C U70C C72U C79U | ≤ 0.026
G6C G59U C79A | ≤ 0.026
G6C G67U | ≤ 0.026
G6C G69A C83U | ≤ 0.026
G6C G88U | ≤ 0.026
G6C U16A C56G U57C U58C U71C | ≤ 0.026
G6C U16C U71G G84U | ≤ 0.026
G6C U17A A54C U55A G73A | ≤ 0.026

Variant | nonsense suppression
G6C U17G G59U U70C G86C | ≤ 0.026
G6C U20G U55G C68U G73C C80A C81U A87C | ≤ 0.026
G6C U21C | ≤ 0.026
G6C U21G | ≤ 0.026
G6C U35G | ≤ 0.026
G6C U35G G66C | ≤ 0.026
G6C U55A | ≤ 0.026
G6C U55C A62C G66U C75G | ≤ 0.026
G6C U55G C68G | ≤ 0.026
G6C U57C G59U | ≤ 0.026
G6C U57C G85A | ≤ 0.026
G6C U58G G65C G66A | ≤ 0.026
G6C U63A G69A A74G | ≤ 0.026
G6C U71A | ≤ 0.026
G6C U71G | ≤ 0.026
G6C U76A | ≤ 0.026
G6C U76C | ≤ 0.026
G6U A9G | ≤ 0.026
G6U A9G A13U G19U G28U C34G U58C C81G | ≤ 0.026
G6U A9G G10C U58G A89U | ≤ 0.026
G6U A9U | 0.0343
G6U A13C U21C U63A | ≤ 0.026
G6U A14C C68G C81G | ≤ 0.026
G6U A14U | ≤ 0.026

Variant | nonsense suppression
G6U A23U G65A C72U | ≤ 0.026
G6U A24C | ≤ 0.026
G6U A30G G67U G84U | ≤ 0.026
G6U A30U | ≤ 0.026
G6U A30U A89C | ≤ 0.026
G6U A30U C64A G66C | ≤ 0.026
G6U A31G | ≤ 0.026
G6U A31U | ≤ 0.026
G6U A31U G69U | ≤ 0.026
G6U A33C | ≤ 0.026
G6U A33G G86C | ≤ 0.026
G6U A60G G67U | ≤ 0.026
G6U A74C | ≤ 0.026
G6U A74U G86C | ≤ 0.026
G6U A87C G88C | ≤ 0.026
G6U C11U A30U | ≤ 0.026
G6U C11U G59A | ≤ 0.026
G6U C12A | ≤ 0.026
G6U C12A U16C | ≤ 0.026
G6U C12G C34G C56U | ≤ 0.026
G6U C12G G25U A30G | ≤ 0.026
G6U C27A G61A U63A A87G | ≤ 0.026
G6U C27G | ≤ 0.026

Reference: the RNAGym collection of RNA variant scans (doi:10.1101/gad.245936.114)
